{
  "source": "the supplement of paper PMC8728848",
  "binders": {"B1": {"name": "ACA (Amaranthus caudatus) (protein)", "chain": "MAGLPVIMCLKSNNNQKYLRYQSDNIQQYGLLQFSADKILDPLAQFEVEPSKTYDGLVHIKSRYTNKYLVRWSPNHYWITASANEPDENKSNWACTLFKPLYVEEGNMKKVRLLHVQLGHYTQNYTVGGSFVSYLFAESSQIDTGSKDVFHVIDWKSIFQFPKRYVTFKGNNGKYLGVITINQLPCLQFGYDNLNDPKVAHEMFVTSNGTICIKSTYMNKFWRLSTDDWILVDGNDPRETNEAAALFRSDVHDFNVISLLNMQKTWFIKRFTSGKPGFINCMNAATQNVDETAILEIIELGSNN"}},
  "assay_in_all_cases": "glycan array binding signal (z-score within array); higher = stronger binding",
  "conditions_in_all_cases": "glycan notation: IUPAC condensed, linker removed",
  "key": {"[1]": {"molecular_target": "Gal(a1-3)Gal(b1-4)GlcNAc(b1-2)Man(a1-3)[Gal(a1-3)Gal(b1-4)GlcNAc(b1-2)Man(a1-6)]Man(b1-4)GlcNAc(b1-4)GlcNAc", "method_in_brief": "(§1)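 Arrays were curated from the Consortium for Functional Glycomics database, 3228 in total, and kept only where the protein sequence was available. Binding is expressed as a within-array Z-score. This score was averaged across arrays of the same protein sequence at different concentrations or buffers and across linkers, and negative values can be read as non-binding.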"}, "[2]": {"molecular_target": "Gal(a1-3)Gal(b1-4)GlcNAc(b1-3)GalNAc", "method_in_brief": "as §1"}, "[3]": {"molecular_target": "Gal(a1-3)Gal(b1-4)GlcNAc(b1-6)GalNAc", "method_in_brief": "as §1"}, "[4]": {"molecular_target": "Gal(a1-3)Gal(b1-4)[Fuc(a1-3)]GlcNAc", "method_in_brief": "as §1"}, "[5]": {"molecular_target": "Gal(a1-3)Gal(b1-4)[Fuc(a1-3)]GlcNAc(b1-2)Man(a1-3)[Gal(a1-3)Gal(b1-4)[Fuc(a1-3)]GlcNAc(b1-2)Man(a1-6)]Man(b1-4)GlcNAc(b1-4)GlcNAc", "method_in_brief": "as §1"}, "Gal(a1-3)GalNAc": {"molecular_target": "Gal(a1-3)GalNAc", "method_in_brief": "as §1"}, "[6]": {"molecular_target": "Gal(a1-3)[Gal(a1-4)]Gal(b1-4)GlcNAc", "method_in_brief": "as §1"}, "[7]": {"molecular_target": "Gal(a1-4)Gal(b1-3)GlcNAc(b1-2)Man(a1-3)[Gal(a1-4)Gal(b1-3)GlcNAc(b1-2)Man(a1-6)]Man(b1-4)GlcNAc(b1-4)GlcNAc", "method_in_brief": "as §1"}, "Gal(a1-4)Gal(b1-4)Glc": {"molecular_target": "Gal(a1-4)Gal(b1-4)Glc", "method_in_brief": "as §1"}, "Gal(a1-4)Gal(b1-4)GlcNAc": {"molecular_target": "Gal(a1-4)Gal(b1-4)GlcNAc", "method_in_brief": "as §1"}, "[8]": {"molecular_target": "Gal(a1-4)Gal(b1-4)GlcNAc(b1-2)Man(a1-3)[Gal(a1-4)Gal(b1-4)GlcNAc(b1-2)Man(a1-6)]Man(b1-4)GlcNAc(b1-4)GlcNAc", "method_in_brief": "as §1"}, "[9]": {"molecular_target": "Gal(a1-4)Gal(b1-4)GlcNAc(b1-3)Gal(b1-4)Glc", "method_in_brief": "as §1"}, "Gal(a1-4)GlcNAc": {"molecular_target": "Gal(a1-4)GlcNAc", "method_in_brief": "as §1"}, "Gal(a1-6)Glc": {"molecular_target": "Gal(a1-6)Glc", "method_in_brief": "as §1"}, "Gal(b1-2)Gal": {"molecular_target": "Gal(b1-2)Gal", "method_in_brief": "as §1"}, "Gal(b1-3)Gal": {"molecular_target": "Gal(b1-3)Gal", "method_in_brief": "as §1"}, "Gal(b1-3)Gal(b1-4)GlcNAc": {"molecular_target": "Gal(b1-3)Gal(b1-4)GlcNAc", "method_in_brief": "as §1"}, "Gal(b1-3)GalNAc": {"molecular_target": "Gal(b1-3)GalNAc", "method_in_brief": "as §1"}, "[10]": {"molecular_target": "Gal(b1-3)GalNAc(a1-3)[Fuc(a1-2)]Gal(b1-4)Glc", "method_in_brief": "as §1"}, "[11]": {"molecular_target": "Gal(b1-3)GalNAc(a1-3)[Fuc(a1-2)]Gal(b1-4)GlcNAc", "method_in_brief": "as §1"}, "Gal(b1-3)GalNAc(b1-3)Gal": {"molecular_target": "Gal(b1-3)GalNAc(b1-3)Gal", "method_in_brief": "as §1"}, "[12]": {"molecular_target": "Gal(b1-3)GalNAc(b1-3)Gal(a1-4)Gal(b1-4)Glc", "method_in_brief": "as §1"}, "[13]": {"molecular_target": "Gal(b1-3)GalNAc(b1-4)Gal(b1-4)Glc", "method_in_brief": "as §1"}, "[14]": {"molecular_target": "Gal(b1-3)GalNAc(b1-4)[Neu5Ac(a2-3)]Gal(b1-4)Glc", "method_in_brief": "as §1"}, "Gal(b1-3)GlcNAc": {"molecular_target": "Gal(b1-3)GlcNAc", "method_in_brief": "as §1"}, "[15]": {"molecular_target": "Gal(b1-3)GlcNAc(a1-3)Gal(b1-4)GlcNAc", "method_in_brief": "as §1"}, "[16]": {"molecular_target": "Gal(b1-3)GlcNAc(a1-6)Gal(b1-4)GlcNAc", "method_in_brief": "as §1"}, "Gal(b1-3)GlcNAc(b1-2)Man": {"molecular_target": "Gal(b1-3)GlcNAc(b1-2)Man", "method_in_brief": "as §1"}, "[17]": {"molecular_target": "Gal(b1-3)GlcNAc(b1-2)Man(a1-3)[Gal(b1-3)GlcNAc(b1-2)Man(a1-6)]Man(b1-4)GlcNAc(b1-4)GlcNAc", "method_in_brief": "as §1"}, "[18]": {"molecular_target": "Gal(b1-3)GlcNAc(b1-2)Man(a1-3)[Gal(b1-3)GlcNAc(b1-2)Man(a1-6)]Man(b1-4)GlcNAc(b1-4)[Fuc(a1-6)]GlcNAc", "method_in_brief": "as §1"}, "[19]": {"molecular_target": "Gal(b1-3)GlcNAc(b1-2)Man(a1-3)[GlcNAc(b1-4)][Gal(b1-3)GlcNAc(b1-2)Man(a1-6)]Man(b1-4)GlcNAc(b1-4)GlcNAc", "method_in_brief": "as §1"}, "[20]": {"molecular_target": "Gal(b1-3)GlcNAc(b1-2)[Gal(b1-3)GlcNAc(b1-6)]Man(a1-6)[Gal(b1-3)GlcNAc(b1-2)Man(a1-3)]Man(b1-4)GlcNAc(b1-4)GlcNAc", "method_in_brief": "as §1"}, "[21]": {"molecular_target": "Gal(b1-3)GlcNAc(b1-3)Gal(b1-3)GlcNAc", "method_in_brief": "as §1"}, "[22]": {"molecular_target": "Gal(b1-3)GlcNAc(b1-3)Gal(b1-4)Glc", "method_in_brief": "as §1"}, "[23]": {"molecular_target": "Gal(b1-3)GlcNAc(b1-3)Gal(b1-4)GlcNAc", "method_in_brief": "as §1"}, "[24]": {"molecular_target": "Gal(b1-3)GlcNAc(b1-3)Gal(b1-4)GlcNAc(b1-2)Man(a1-3)[Gal(b1-3)GlcNAc(b1-3)Gal(b1-4)GlcNAc(b1-2)Man(a1-6)]Man(b1-4)GlcNAc(b1-4)GlcNAc", "method_in_brief": "as §1"}, "[25]": {"molecular_target": "Gal(b1-3)GlcNAc(b1-3)Gal(b1-4)GlcNAc(b1-2)[Gal(b1-3)GlcNAc(b1-3)Gal(b1-4)GlcNAc(b1-6)]Man(a1-6)[Gal(b1-3)GlcNAc(b1-3)Gal(b1-4)GlcNAc(b1-2)Man(a1-3)]Man(b1-4)GlcNAc(b1-4)[Fuc(a1-6)]GlcNAc", "method_in_brief": "as §1"}},
  "note": "The list shows a part of the results.",
  "data": [
    {"binder": "B1", "values": [
      {"measurement": "glycan array binding signal (z-score)", "setting": "[1]", "result": -0.158},
      {"measurement": "glycan array binding signal (z-score)", "setting": "[2]", "result": 0.005},
      {"measurement": "glycan array binding signal (z-score)", "setting": "[3]", "result": -0.246},
      {"measurement": "glycan array binding signal (z-score)", "setting": "[4]", "result": 0.091},
      {"measurement": "glycan array binding signal (z-score)", "setting": "[5]", "result": -0.878},
      {"measurement": "glycan array binding signal (z-score)", "setting": "Gal(a1-3)GalNAc", "result": 0.156},
      {"measurement": "glycan array binding signal (z-score)", "setting": "[6]", "result": 0.1},
      {"measurement": "glycan array binding signal (z-score)", "setting": "[7]", "result": -0.318},
      {"measurement": "glycan array binding signal (z-score)", "setting": "Gal(a1-4)Gal(b1-4)Glc", "result": -0.012},
      {"measurement": "glycan array binding signal (z-score)", "setting": "Gal(a1-4)Gal(b1-4)GlcNAc", "result": 0.134},
      {"measurement": "glycan array binding signal (z-score)", "setting": "[8]", "result": -0.195},
      {"measurement": "glycan array binding signal (z-score)", "setting": "[9]", "result": -0.059},
      {"measurement": "glycan array binding signal (z-score)", "setting": "Gal(a1-4)GlcNAc", "result": -0.189},
      {"measurement": "glycan array binding signal (z-score)", "setting": "Gal(a1-6)Glc", "result": 0.141},
      {"measurement": "glycan array binding signal (z-score)", "setting": "Gal(b1-2)Gal", "result": -0.153},
      {"measurement": "glycan array binding signal (z-score)", "setting": "Gal(b1-3)Gal", "result": 0.088},
      {"measurement": "glycan array binding signal (z-score)", "setting": "Gal(b1-3)Gal(b1-4)GlcNAc", "result": 0.13},
      {"measurement": "glycan array binding signal (z-score)", "setting": "Gal(b1-3)GalNAc", "result": -0.321},
      {"measurement": "glycan array binding signal (z-score)", "setting": "[10]", "result": -0.399},
      {"measurement": "glycan array binding signal (z-score)", "setting": "[11]", "result": -0.18},
      {"measurement": "glycan array binding signal (z-score)", "setting": "Gal(b1-3)GalNAc(b1-3)Gal", "result": -0.191},
      {"measurement": "glycan array binding signal (z-score)", "setting": "[12]", "result": -0.347},
      {"measurement": "glycan array binding signal (z-score)", "setting": "[13]", "result": 0.073},
      {"measurement": "glycan array binding signal (z-score)", "setting": "[14]", "result": -0.454},
      {"measurement": "glycan array binding signal (z-score)", "setting": "Gal(b1-3)GlcNAc", "result": -0.151},
      {"measurement": "glycan array binding signal (z-score)", "setting": "[15]", "result": -0.572},
      {"measurement": "glycan array binding signal (z-score)", "setting": "[16]", "result": -0.451},
      {"measurement": "glycan array binding signal (z-score)", "setting": "Gal(b1-3)GlcNAc(b1-2)Man", "result": 0.032},
      {"measurement": "glycan array binding signal (z-score)", "setting": "[17]", "result": 0.867},
      {"measurement": "glycan array binding signal (z-score)", "setting": "[18]", "result": 0.116},
      {"measurement": "glycan array binding signal (z-score)", "setting": "[19]", "result": 2.44},
      {"measurement": "glycan array binding signal (z-score)", "setting": "[20]", "result": -0.184},
      {"measurement": "glycan array binding signal (z-score)", "setting": "[21]", "result": -0.267},
      {"measurement": "glycan array binding signal (z-score)", "setting": "[22]", "result": -0.586},
      {"measurement": "glycan array binding signal (z-score)", "setting": "[23]", "result": -0.338},
      {"measurement": "glycan array binding signal (z-score)", "setting": "[24]", "result": -0.297},
      {"measurement": "glycan array binding signal (z-score)", "setting": "[25]", "result": 0.911}
    ]}
  ]
}
